A short description of the experiment: qHTS Assay for Lipid Storage Modulators (AID 1519). The conditions noted are these: Drosophila S3 cells, BODIPY lipid droplet/cell ratio, laser cytometry, cells loaded with oleic acid; for AC50: measured here: lipid (BODIPY) channel AC50. The procedure, abridged: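 Cells seeded at 5,000 per well were treated with compounds over a concentration series and loaded with oleic acid (400 uM, as added). Lipid droplet fluorescence (488 nm excitation, 500-530 nm channel) was read by laser-scanning cytometry and normalized to 20 uM Triacsin C.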

Setting [1] is: measured here: cell count channel max response.
The mark [2] stands for this setting: measured here: lipid channel max response.

SMILES strings stand for the structures. The list shows a part of the results. The main result of the screen is listed elsewhere. These columns were measured beside it and carry no call. Most of these compounds were active or inconclusive in the main read-out, so they are no random draw. Words in brackets tell the shape of the fitted curve; partial curves, single points and poor fits give uncertain potencies.
Tags describe the fitted curve by direction and shape.

For the molecule `COC(=O)N1CCC2(CC1)CCN(c1ccccn1)CC2`, the AC50 was 5.01 µM [rising, partial curve]. Also, under setting [1], the max response came out at 24.5%. The max response under setting [2] was found to be 37.9%.
On to `Nc1ccc(C(=O)NCC(=O)O)cc1`, for which the AC50 is 39.8 µM [rising, single point]. The max response under setting [1] came to 23.7%. The max response under setting [2] worked out at 41.4%.
`CC(C)NC(=O)N1CC[C@@]2(CCCN(C(=O)c3ccco3)C2)C1`: the concentration at half-maximal activity (AC50) was 2.82 µM [falling, full curve, poor fit]. Also, the max response under setting [1] is -27.9%. The max response under setting [2] was -27.3%.
For `COc1ccc(NC(=O)N2CCCC3(CCN(C(=O)c4ccco4)CC3)C2)cc1`, the AC50 was 1.78 µM [rising, full curve, poor fit]. Also, the max response under setting [1] came to 21.8%. For the same molecule, the max response under setting [2] was 34.5%.
Turning to `O=c1c(-c2ccc(Cl)cc2)nc2cnc(N3CCNCC3)nc2n1-c1ccccc1`, the AC50 is 0.891 µM [rising, partial curve, poor fit]. Besides, the max response under setting [1] is 23.1%. The max response under setting [2] worked out at 31.6%.
With `Cn1c(=O)c2c(ncn2CC(O)CO)n(C)c1=O` (stereo not given), the AC50 was 35.5 µM [rising, single point]. For the same molecule, the max response under setting [1] was 21.2%. The max response under setting [2] was 34.1%.
Regarding `O=C(c1cnccn1)N1CCC2(CCCN(c3ncccn3)C2)CC1`, the AC50 is 0.0316 µM [rising, partial curve, poor fit]. The max response under setting [1] was 7.66%. Moreover, under setting [2], the max response turned out to be 18.2%.
Regarding `O=C(Nc1ccccc1)N1CCC2(CCNCC2)CC1`, the half-maximal activity concentration (AC50) is 0.0316 µM [rising, full curve, poor fit]. Further, under setting [1], the max response is 24.8%. In addition, the max response under setting [2] came out at 36.7%.
As for `CCOC(=O)C1(O)Oc2cc(OC)cc(OC)c2C(=O)C1c1ccccc1` (stereo not given), the AC50 is 28.2 µM [rising, partial curve]. In addition, under setting [1], the max response stood at 46.5%. Besides, the max response under setting [2] worked out at 64.4%.
In the case of `CC(=O)OC1CCC2(C)C3=C(CCC2C1(C)C)[C@@]1(C)CCC(C(C)CCC=C(C)C)[C@@]1(C)CC3` (stereo not given in full), the AC50 was 35.5 µM [rising, single point]. The max response under setting [1] is 25%. Also, under setting [2], the max response is 46%.

These data come from PubChem BioAssay (NCATS).
